Reference: PubChem BioAssay (NCATS)
“And” between values parts separate entries of the source, which are not always exact repeats. Equal entries are not always repeated. This is one part of the list. These are further read-outs of the screen, such as a control signal, another cell line or another target. No call is given for them. For some of these results: Most of these compounds were active or inconclusive in the main read-out, so they are no random draw. For some of these results: Potencies come from curve fits of mixed quality, noted in brackets.

What was measured:
[1] = qHTS Assay for Lipid Storage Modulators (AID 1519); conditions: Drosophila S3 cells, BODIPY lipid droplet/cell ratio, laser cytometry, cells loaded with oleic acid
In short: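 Cells seeded at 5,000 per well were treated with compounds over a concentration series and loaded with oleic acid (400 uM, as added). Lipid droplet fluorescence (488 nm excitation, 500-530 nm channel) was read by laser-scanning cytometry and normalized to 20 uM Triacsin C.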

[2] = qHTS assay for small molecule antagonists of glucocorticoid receptor signaling (AID 588533); conditions: HeLa MMTV-bla, GRE beta-lactamase ratio, antagonist mode, 18 h; measured here: W530 channel AC50;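 further: cells stimulated with 2 nM dexamethasone as agonist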
[3] = qHTS assay for small molecule antagonists of peroxisome proliferator-activated receptor gamma signaling (AID 588537); conditions: HEK293 PPARg-UAS-bla, beta-lactamase ratio, antagonist mode; measured here: W460 blue channel
In short: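 Antagonist-mode β-lactamase reporter screen run as a titration series. HEK293 PPARγ-UAS-bla cells are stimulated with rosiglitazone (50 nM final) for 16 h, then CCF4 is read at 460/530 nm. Data are scaled between DMSO and rosiglitazone and fitted to the Hill equation.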

[4] = qHTS for identification of novel therapeutic agents for treatment of microphthalmiaassociated transcription factor (MiT) renal cell carcinoma (RCC) (AID 1963991); conditions: CellTiter-Glo, 48 h; for z-score: stronger effect = lower value; for AC50: measured here: UOK145 cell viability
In short: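 Three TFE3-fusion RCC cell lines (UOK109, UOK124, UOK145), 500 cells/well, were exposed to the 1912-compound MIPE 4.0 library for 48 hours at 37 C. Viability was read by CellTiter-Glo luminescence, normalised to DMSO (100%) and empty wells (0%), with 11-concentration curve fits.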

[5] = qHTS Assay for Modulators of Human Peripheral Myelin Protein 22 (PMP22) Expression/Activity (AID 1967); conditions: Cell-based PMP22 reporter, dual-color luciferase ratio
In short: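 Readout is the corrected green/red luminescence ratio after 24 h compound exposure, normalised to untreated cells (0%). Engineered MSC80 mouse Schwann cells express green luciferase from the mouse Pmp22 promoter and red luciferase from EF-alpha as internal control.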

[6] = qHTS Validation Assay to Find Inhibitors of Chronic Active B-Cell Receptor Signaling (AID 485345); conditions: ABC-DLBCL cells, chronic BCR signaling reporter; measured here: CBR control luciferase (viability counter)
In short: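 Read-out: ratio of filter-corrected green (IkappaBalpha fusion) to red (native) luciferase signal in doxycycline-induced TMD8 cells after 4 h at 37C. Titration spanned 46 uM–3 nM; Data were normalised to basal cells and 10 uM MG-132 wells.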

[7] = Nrf2 qHTS screen for inhibitors: Validation (AID 493153); conditions: A549 ARE-Fluc reporter, 18-24 h; AC50: CellTiter-Fluor fluorescence read, measured here: cytotoxicity CellTiter-Fluor AC50; viability change: measured here: cytotoxicity max response
In short: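 A549 ARE_Fluc, 5% FBS OPTI-MEM; cpd titration, 18-24 h, 37°C/5% CO2. Read 1: CellTiter-Fluor (Ex 405/Em 525), cytotox. Read 2: luciferase lum, Nrf2 activity.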

[8] = qHTS drug screen for cell cycle checkpoint inhibitors in PARPi-resistant BRCA-mutant ovarian cancer cell lines. (AID 1963452); conditions: PEO1/OlaR viability, CellTiter-Glo luminescence, 96 h
In short: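 PEO1, PEO4 and PEO1/OlaR ovarian cancer cells, 600 per well, exposed 96 h at 37C to a dilution series. Viability read by CellTiter-Glo luminescence, normalized to DMSO and empty wells; activity summarized as Z-AUC.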

[9] = qHTS Assay for Inhibitors of PDE-IV (AID 607); conditions: HEK293 ACTOne CNG channel cells, membrane potential fluorescence; measured here: parental cell counter-screen;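 further: parental cells stimulated with forskolin 10 µM plus RO 20-1724 100 µM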
In short: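 ACTOne HEK293 cells carry a modified cAMP-gated CNG channel and express endogenous PDE4; plated 1000 cells/well, compounds up to 22.9 uM final. Membrane-potential dye fluorescence (ex 535/em 590) was read; parental cells received 10 uM forskolin + 100 uM RO 20-1724.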

[10] = measured here: cell count channel max response
[11] = measured here: cell number channel AC50
[12] = measured here: lipid (BODIPY) channel AC50
[13] = measured here: lipid channel max response
[14] = TFE3-RCC UOK109 viability, measured here: UOK109 Z-AUC
[15] = TFE3-RCC viability, measured here: UOK124 Z-AUC
[16] = TFE3-RCC viability, measured here: UOK145 Z-AUC
[17] = measured here: green reporter channel AC50, mouse Pmp22 promoter in mouse Schwann cells
[18] = measured here: red reporter channel AC50, EF-alpha promoter control reporter in MSC80 mouse Schwann cells
[19] = measured here: PEO1 parental viability
Tags describe the fitted curve by direction and shape.

In the case of `CCCC(CCC)C(=O)O`, the max response [1, 10] is reported as -15.9%, the AC50 [1, 11] is reported as 3.98 µM [falling, partial curve] and the AC50 [1, 12] is reported as 3.98 µM [falling, partial curve, poor fit]. The max response [1, 13] was -14.4%, the AC50 [2] was 891 µM [rising, partial curve, poor fit] and the AC50 [3] was 50.1 µM [rising, single point]. It also gave a z-score [4, 14] of -0.879, a z-score [4, 15] of 0.615 and a z-score [4, 16] of -0.427. The AC50 ([4]; TFE3-RCC viability) was 20.9 µM [falling, single point].
In the case of `O=C1CCc2cc(OCCCCc3nnnn3C3CCCCC3)ccc2N1`, the max response [1, 10] is reported as 66.5% and 16.2%, the AC50 [1, 11] is reported as 3.55 µM [rising, full curve] and the AC50 [1, 12] is reported as 3.55 µM [rising, full curve] and 12.6 µM [rising, partial curve, poor fit]. The max response [1, 13] was 91.6% and 31%, the AC50 [5, 17] was 84.9 µM [falling, single point] and the AC50 [5, 18] was 84.9 µM [falling, single point]. The AC50 [6] was 32.6 µM [rising, single point], the viability change [7] was -3.36% and the AC50 [8, 19] was 17.4 µM [falling, partial curve, poor fit].
In the case of `Clc1ccc(Cn2c(CN3CCCC3)nc3ccccc32)cc1`, the max response [1, 10] is reported as 67.8%, the AC50 [1, 11] is reported as 2.82 µM [falling, full curve, poor fit] and the AC50 [1, 12] is reported as 3.16 µM [falling, full curve, poor fit]. The max response [1, 13] was 73.2%, the AC50 [5, 17] was 84.9 µM [falling, single point] and the AC50 [5, 18] was 75.7 µM [falling, partial curve, poor fit]. For the same compound, the AC50 [8, 19] was 19.5 µM [falling, single point].
With `COc1ccc(C(C)=O)c(O)c1` the max response [1, 10] was 31%, the AC50 [1, 11] was 15.8 µM [rising, partial curve, poor fit] and the AC50 [1, 12] was 22.4 µM [rising, partial curve, poor fit]. For the same compound, the max response [1, 13] was 57.8%, the z-score [4, 14] was -0.162 and the z-score [4, 15] was 0.735. The z-score [4, 16] was 0.386.
For `O=c1cc(-c2ccccc2)oc2cc(O)c(O)c(O)c12`, the max response [1, 10] was 81.4% and 109%, the AC50 [1, 11] was 12.6 µM [rising, full curve] and 15.8 µM [rising, partial curve, poor fit] and the AC50 [1, 12] was 14.1 µM [rising, full curve] and 25.1 µM [rising, partial curve, poor fit]. The max response [1, 13] was 126% and 142%, the z-score [4, 14] was 0.589 and the z-score [4, 15] was 0.806. It also gave a z-score [4, 16] of 0.943.
In the case of `CCOC(=O)C(C)(C)Oc1ccc(Cl)cc1`, the max response [1, 10] is reported as -7.47%, the AC50 [1, 11] is reported as 0.00501 µM [falling, full curve, poor fit] and the AC50 [1, 12] is reported as 0.00501 µM [falling, full curve, poor fit]. For the same compound, the max response [1, 13] was -4.29%, the AC50 [5, 18] was 84.9 µM [falling, single point] and the AC50 ([8]; measured here: PEO4 viability) was 0.0549 µM [rising, full curve, poor fit].
With `CC1(C)NC(=O)N(c2ccc([N+](=O)[O-])c(C(F)(F)F)c2)C1=O` the max response [1, 10] was -29% and 66.8%, the AC50 [1, 11] was 12.6 µM [rising, full curve] and the AC50 [1, 12] was 14.1 µM [falling, single point] and 10 µM [rising, partial curve, poor fit]. The max response [1, 13] was -35.4% and 66.1%, the viability change [7] was 2.86% and the z-score [4, 14] was 1.29. It also gave a z-score [4, 15] of -0.0654 and a z-score [4, 16] of 0.00214.
With `CCCCC(C=O)NC(=O)C(CC(C)C)NC(=O)OCc1ccccc1` (configuration not stated) the AC50 [9] was 12.6 µM [rising, single point], the max response [1, 10] was 42.3% and the AC50 [1, 11] was 12.6 µM [rising, full curve, poor fit]. For the same compound, the AC50 [1, 12] was 14.1 µM [rising, full curve, poor fit], the max response [1, 13] was 46.2% and the z-score [4, 14] was 0.241. The z-score [4, 15] was 0.269, the z-score [4, 16] was -0.106 and the AC50 ([4]; TFE3-RCC viability) was 3.72 µM [falling, partial curve, poor fit].
In the case of `Cc1ccc(NC(=O)c2cccc(N(C)C)c2)cc1NC(=O)c1ccc(O)cc1`, the max response [1, 10] is reported as 100%, the AC50 [1, 11] is reported as 11.2 µM [rising, partial curve] and the AC50 [1, 12] is reported as 4.47 µM [rising, partial curve]. For the same compound, the max response [1, 13] was 135%, the z-score [4, 14] was 0.772 and the z-score [4, 15] was 0.775. The z-score [4, 16] was -0.323 and the AC50 ([4]; TFE3-RCC viability) was 4.69 µM [falling, full curve].
In the case of `OC[C@H]1O[C@@H](n2cnc3c(NC4CCCC4)ncnc32)[C@H](O)[C@H]1O`, the max response [1, 10] is reported as 62%, the AC50 [1, 11] is reported as 15.8 µM [falling, single point] and the AC50 [1, 12] is reported as 15.8 µM [falling, single point]. For the same compound, the max response [1, 13] was 65.3%, the AC50 [5, 17] was 42.6 µM [falling, partial curve] and the AC50 [5, 18] was 95.3 µM [falling, single point].
In the case of `CNc1ncnc2c1ncn2[C@@H]1O[C@H](CO)[C@H](O)[C@H]1O`, the max response [1, 10] is reported as -58.2%, the AC50 [1, 11] is reported as 22.4 µM [falling, partial curve, poor fit] and the AC50 [1, 12] is reported as 20 µM [falling, partial curve, poor fit]. The max response [1, 13] was -60.6% and the AC50 [5, 18] was 84.9 µM [falling, single point].
For `N#CC(C#N)=C(N)/C(C#N)=C/c1ccc(O)cc1`, the max response [1, 10] was -31%, the AC50 [1, 11] was 0.398 µM [falling, full curve, poor fit] and the AC50 [1, 12] was 4.47 µM [falling, partial curve, poor fit]. The max response [1, 13] was -51.6% and the AC50 [5, 18] was 75.7 µM [falling, single point].
With `CN1CCc2ccccc2Cc2[nH]c3ccccc3c2CC1` the max response [1, 10] was 113% and 33.6%, the AC50 [1, 11] was 4.47 µM [rising, full curve] and the AC50 [1, 12] was 5.01 µM [rising, full curve] and 44.7 µM [rising, single point]. For the same compound, the max response [1, 13] was 143% and 35.5% and the AC50 [5, 18] was 84.9 µM [falling, single point].
For `CCCN1C[C@H](CSC)C[C@@H]2c3cccc4[nH]cc(c34)C[C@H]21`, the max response [1, 10] was 67.9% and -13.7%, the AC50 [1, 11] was 7.94 µM [rising, partial curve, poor fit] and 2.82 µM [falling, full curve] and the AC50 [1, 12] was 8.91 µM [rising, full curve] and 2.82 µM [falling, full curve]. For the same compound, the max response [1, 13] was 73.2% and -11.5% and the AC50 [5, 17] was 84.9 µM [falling, single point].
